Our source for the switch fluorescence ratio values is the supplement of paper PMC10126150.

The data set deals with ATP. The data set is described as follows: switch fluorescence ratio, 500 uM ATP over buffer (Cy3 cluster intensity, sum of 5 cycles each) (fold (ratio)); higher = stronger signal-on switching upon ATP binding; sequences stand for … in TCGTCGGCAGCGTCAGATGTGTATAAGAGACAGTTTTTTTTTTTTTTTTTTTTTTTTT…TC. Particulars: aptamer strand: ATP DNA aptamer (quencher-CACCTGGGGGAGTATTGCGGAGGAAGG + anchor), 100 nM annealed; ATP concentration: 500 uM; one replicate. Put shortly:
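Imaging in selection buffer was followed by imaging after 15 min with 500 uM ATP at 22 °C, for Cy3-labelled switching-strand clusters annealed to 100 nM quencher-labelled ATP aptamer on a modified Illumina MiSeq flow-cell. Five of these buffer/ATP cycles ran, separated by NaOH stripping and re-annealing. The fluorescence ratio per cluster is summed target-cycle over summed buffer-cycle Cy3 intensity, averaged per switch-domain sequence; clusters outside 100-1000 RFU were removed.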

Sequences with one replicate were seen in a single cluster, so their values are uncertain.
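Note: ATP exposure 15 min at 22 °C before imaging.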

On to ATCTAGGCA, for which the switch fluorescence ratio was 1.02. For AAACGATCCG the value was 1.09. As to CGACTCCAGA, the switch fluorescence ratio is 1.2. Turning to CGCACGTCGT, the switch fluorescence ratio is 0.998. Turning to CTGTGAGGGG, the switch fluorescence ratio was 0.967. For TGGTTCGATG the value was 0.981. In the case of AATAATATAC, the switch fluorescence ratio was 1.11.

GGGTCAATTG: the switch fluorescence ratio amounted to 1.02. For TTGCTAAGC, the switch fluorescence ratio worked out at 1.06. As for TAGATGCTC, the switch fluorescence ratio came out at 1.18.

For the sequence AAGACGGTAG, the switch fluorescence ratio was 1.01. Consider TTTGCCTCCA, for which the switch fluorescence ratio turned out to be 1.

As to TAGAATTCAG, the switch fluorescence ratio was 0.967.

With TCTCCTTGGG, the switch fluorescence ratio is 0.993. Regarding GAATCTGCG, the switch fluorescence ratio is 0.971. For CTTTGTATTA the value was 0.993.

In the case of GGAGAGGCAA, the switch fluorescence ratio came out at 1.11. Regarding TGTTGATTTC, the switch fluorescence ratio is 1.03. Take GCAGCCCCGC: the switch fluorescence ratio was found to be 1.01. For the sequence CGGTCCTACG, the switch fluorescence ratio amounted to 1.1. Regarding GCCACTCTCT, the switch fluorescence ratio worked out at 1.02.

GGAGCGGGAA: the switch fluorescence ratio was found to be 1.12. For TCACTTGGAA the value was 0.98. Turning to CTAAGGAGCG, the switch fluorescence ratio was determined as 0.955. Take CACTGAGTTT: the switch fluorescence ratio worked out at 0.984. With TGCGGTGGTG, the switch fluorescence ratio worked out at 0.934. With TGTTGAATGA, the switch fluorescence ratio is 0.959. With CGTCTGGATT, the switch fluorescence ratio was found to be 1.12.

As for ATCCCGGTAG, the switch fluorescence ratio came out at 0.996. On to TTGCATACAT, for which the switch fluorescence ratio came to 1.32.

In the case of GCGTGTACAC, the switch fluorescence ratio worked out at 1.07.

For the sequence ATCATACCGT, the switch fluorescence ratio was 1.02. As to AATGGCTTCC, the switch fluorescence ratio is 2.18. Turning to TAAGTTCTGA, the switch fluorescence ratio is 1.02.

TCAGTGAAG: the switch fluorescence ratio amounted to 0.977. Regarding GGTATATGTA, the switch fluorescence ratio was 0.994. For AATGCTCCAT the value was 1.02; for TGATAACTTT, 0.979; for TTCCGTGAGT, 1.02. For CACATATC, the switch fluorescence ratio came to 1.07. With TCCAATTCCG, the switch fluorescence ratio was found to be 1. For CGGTTGTAGA, the switch fluorescence ratio was 1.04. As to CGGCTGCTGG, the switch fluorescence ratio was 1.04. On to GGGTTAGGCG, for which the switch fluorescence ratio was 0.979. In the case of AGCGCCGTGG, the switch fluorescence ratio was 1.13. On to GCTAAAAAGG, for which the switch fluorescence ratio came to 0.947.

Turning to CTGCAGGGTT, the switch fluorescence ratio was found to be 1.02. For TACGAGAAGT the value was 1.04; for GAGCGCTAAA, 1.04; for TTTTAATTC, 0.974. Take GTTTGTGAGT: the switch fluorescence ratio stood at 1.02.

On to CCTTACCACG, for which the switch fluorescence ratio is 1.29.

For the sequence GAGTGACATG, the switch fluorescence ratio came out at 1.05. As for CAATACTTGC, the switch fluorescence ratio was 1.13. Consider TATGGGCTT, for which the switch fluorescence ratio was determined as 0.998. As to GTCGGAGATT, the switch fluorescence ratio worked out at 1.02. GCGGTTTCGC: the switch fluorescence ratio is 1.02.

Turning to TAGGCTGGCC, the switch fluorescence ratio came out at 0.965. In the case of TCCGGTACGA, the switch fluorescence ratio worked out at 1.18. For CGTCAGATGG the value was 1.04. Regarding AGGTGTCAT, the switch fluorescence ratio is 1.01.

For CTTGAAGGTC, the switch fluorescence ratio was 0.997. Regarding TCTGGCTGAT, the switch fluorescence ratio came out at 1. For GCTTTGTTGC the value was 1.02; for ATAGGGGCGA, 1.01; for GGCCCTGCAC, 0.998. Consider GGCGTGGTAA, for which the switch fluorescence ratio came out at 0.977. As to TTTAAATACG, the switch fluorescence ratio was 1.04. For GGTCGCGGGC the value was 0.967. For ATTTAAACGC the value was 1.02; for GCGGTGCCTA, 0.972. CGTTACTATT: the switch fluorescence ratio was determined as 1.02.

Regarding AAGCACGTGC, the switch fluorescence ratio came out at 0.908.

On to AATTTACGCT, for which the switch fluorescence ratio was found to be 1.05.

ATGCACGATG: the switch fluorescence ratio is 1. Take AGCTGTTCGA: the switch fluorescence ratio is 1.01.

With TATTCGGTAA, the switch fluorescence ratio was found to be 0.963.

On to GAGATCCTAT, for which the switch fluorescence ratio was found to be 0.989. TAGTCTTTGA: the switch fluorescence ratio is 0.97.
